In the supplement of paper PMC10369915:
The other results are listed elsewhere or left out. Cut-off read from the data, not from the text of the source: active = 3.2 or more and inactive = the rest. The signal is at background level for most entries.

biological target: SHP2 C-SH2 domain E139D; assay: enrichment score (SH2-bound / input frequency) (ratio); bacterial display of known human phosphotyrosine sites (pTyr-Var adds point mutants) read by sequencing; higher = stronger binding; tyrosines were phosphorylated by kinases first; details: peptide library: Human pTyr
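Note: displayed peptides selected on beads carrying the immobilized SH2 domain, with library peptides lacking any tyrosine serving as negative controls.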

Row | Binder | enrichment score
1 | ERLVECQYELTDRLA [GIT1_HUMAN_224] | inactive: 1.31
2 | FLPVNPEYSATRNQG [GIT1_HUMAN_321] | inactive: 0.607
3 | DLDDQHDYDSVASDE [GIT1_HUMAN_383] | inactive: 1.14
4 | ELEDDAIYSVHVPAG [GIT1_HUMAN_545] | inactive: 0.894
5 | VHVPAGLYRIRKGVS [GIT1_HUMAN_554] | inactive: 0.694
6 | ERLVEIQYELTDRLA [GIT2_HUMAN_224] | inactive: 1.04
7 | KDCGSQKYAAFNGCS [GJA1_HUMAN_265_YA] | inactive: 0.919
8 | VLCEVFKYNRRPAET [GLNA_HUMAN_104] | inactive: 2.18
9 | CFERASEYQLNDSAG [GNAT1_HUMAN_142] | inactive: 1.35
10 | NHIGHTGYLNTVTVS [GNB2L1_HUMAN_194] | inactive: 0.722
11 | AARVWQLYIGDTRSR [GNMT_HUMAN_34] | inactive: 2
12 | CLPEHNPYRPSYSYD [AKAP8_HUMAN_146] | inactive: 1.22
13 | KFSHSGRYMMTRDYL [2ABD_HUMAN_305] | inactive: 2.82

biological target: SHP2 C-SH2 domain wild-type; assay: as above; details: peptide library: Human pTyr

Row | Binder | enrichment score
14 | ERLVECQYELTDRLA [GIT1_HUMAN_224] | inactive: 1.22
15 | FLPVNPEYSATRNQG [GIT1_HUMAN_321] | inactive: 0.611
16 | DLDDQHDYDSVASDE [GIT1_HUMAN_383] | inactive: 1.24
17 | ELEDDAIYSVHVPAG [GIT1_HUMAN_545] | inactive: 0.677
18 | VHVPAGLYRIRKGVS [GIT1_HUMAN_554] | inactive: 0.765
19 | ERLVEIQYELTDRLA [GIT2_HUMAN_224] | inactive: 0.649
20 | KDCGSQKYAAFNGCS [GJA1_HUMAN_265_YA] | inactive: 0.875
21 | VLCEVFKYNRRPAET [GLNA_HUMAN_104] | inactive: 1.65
22 | CFERASEYQLNDSAG [GNAT1_HUMAN_142] | inactive: 0.964
23 | NHIGHTGYLNTVTVS [GNB2L1_HUMAN_194] | inactive: 0.592
24 | AARVWQLYIGDTRSR [GNMT_HUMAN_34] | inactive: 1.99
25 | CLPEHNPYRPSYSYD [AKAP8_HUMAN_146] | inactive: 1.3
26 | KFSHSGRYMMTRDYL [2ABD_HUMAN_305] | active: 3.5

biological target: SHP2 N-SH2 domain L43F; assay: as above; details: peptide library: Human pTyr

Row | Binder | enrichment score
27 | ERLVECQYELTDRLA [GIT1_HUMAN_224] | inactive: 1.47
28 | FLPVNPEYSATRNQG [GIT1_HUMAN_321] | inactive: 0.526
29 | DLDDQHDYDSVASDE [GIT1_HUMAN_383] | inactive: 1.12
30 | ELEDDAIYSVHVPAG [GIT1_HUMAN_545] | inactive: 0.735
31 | VHVPAGLYRIRKGVS [GIT1_HUMAN_554] | inactive: 0.723
32 | ERLVEIQYELTDRLA [GIT2_HUMAN_224] | inactive: 0.843
33 | KDCGSQKYAAFNGCS [GJA1_HUMAN_265_YA] | inactive: 0.815
34 | VLCEVFKYNRRPAET [GLNA_HUMAN_104] | inactive: 2.08
35 | CFERASEYQLNDSAG [GNAT1_HUMAN_142] | inactive: 1.13
36 | NHIGHTGYLNTVTVS [GNB2L1_HUMAN_194] | inactive: 0.613
37 | AARVWQLYIGDTRSR [GNMT_HUMAN_34] | inactive: 1.95
38 | CLPEHNPYRPSYSYD [AKAP8_HUMAN_146] | inactive: 1.09
39 | KFSHSGRYMMTRDYL [2ABD_HUMAN_305] | inactive: 2.96

biological target: SHP2 N-SH2 domain T42A; assay: as above; details: peptide library: Human pTyr

Row | Binder | enrichment score
40 | ERLVECQYELTDRLA [GIT1_HUMAN_224] | inactive: 1.6
41 | FLPVNPEYSATRNQG [GIT1_HUMAN_321] | inactive: 0.64
42 | DLDDQHDYDSVASDE [GIT1_HUMAN_383] | inactive: 1.07
43 | ELEDDAIYSVHVPAG [GIT1_HUMAN_545] | inactive: 0.728
44 | VHVPAGLYRIRKGVS [GIT1_HUMAN_554] | inactive: 0.737
45 | ERLVEIQYELTDRLA [GIT2_HUMAN_224] | inactive: 0.845
46 | KDCGSQKYAAFNGCS [GJA1_HUMAN_265_YA] | inactive: 0.773
47 | VLCEVFKYNRRPAET [GLNA_HUMAN_104] | inactive: 1.84
48 | CFERASEYQLNDSAG [GNAT1_HUMAN_142] | inactive: 1.02
49 | NHIGHTGYLNTVTVS [GNB2L1_HUMAN_194] | inactive: 0.685
50 | AARVWQLYIGDTRSR [GNMT_HUMAN_34] | inactive: 2.05
51 | CLPEHNPYRPSYSYD [AKAP8_HUMAN_146] | inactive: 1.09
52 | KFSHSGRYMMTRDYL [2ABD_HUMAN_305] | inactive: 3.01

biological target: SHP2 N-SH2 domain T52S; assay: as above; details: peptide library: Human pTyr

Row | Binder | enrichment score
53 | ERLVECQYELTDRLA [GIT1_HUMAN_224] | inactive: 1.41
54 | FLPVNPEYSATRNQG [GIT1_HUMAN_321] | inactive: 0.81
55 | DLDDQHDYDSVASDE [GIT1_HUMAN_383] | inactive: 1.29
56 | ELEDDAIYSVHVPAG [GIT1_HUMAN_545] | inactive: 0.803
57 | VHVPAGLYRIRKGVS [GIT1_HUMAN_554] | inactive: 0.802
58 | ERLVEIQYELTDRLA [GIT2_HUMAN_224] | inactive: 0.835
59 | KDCGSQKYAAFNGCS [GJA1_HUMAN_265_YA] | inactive: 0.703
60 | VLCEVFKYNRRPAET [GLNA_HUMAN_104] | inactive: 2.09
61 | CFERASEYQLNDSAG [GNAT1_HUMAN_142] | inactive: 1.31
62 | NHIGHTGYLNTVTVS [GNB2L1_HUMAN_194] | inactive: 0.543
63 | AARVWQLYIGDTRSR [GNMT_HUMAN_34] | inactive: 2.14
64 | CLPEHNPYRPSYSYD [AKAP8_HUMAN_146] | inactive: 1.25
65 | KFSHSGRYMMTRDYL [2ABD_HUMAN_305] | active: 3.54

biological target: SHP2 N-SH2 domain wild-type; assay: as above; details: peptide library: Human pTyr

Row | Binder | enrichment score
66 | ERLVECQYELTDRLA [GIT1_HUMAN_224] | inactive: 1.61
67 | FLPVNPEYSATRNQG [GIT1_HUMAN_321] | inactive: 0.554
68 | DLDDQHDYDSVASDE [GIT1_HUMAN_383] | inactive: 1.28
69 | ELEDDAIYSVHVPAG [GIT1_HUMAN_545] | inactive: 0.945
70 | VHVPAGLYRIRKGVS [GIT1_HUMAN_554] | inactive: 1.03
71 | ERLVEIQYELTDRLA [GIT2_HUMAN_224] | inactive: 0.781
72 | KDCGSQKYAAFNGCS [GJA1_HUMAN_265_YA] | inactive: 0.896
73 | VLCEVFKYNRRPAET [GLNA_HUMAN_104] | inactive: 2.02
74 | CFERASEYQLNDSAG [GNAT1_HUMAN_142] | inactive: 1.72
75 | NHIGHTGYLNTVTVS [GNB2L1_HUMAN_194] | inactive: 0.762
76 | AARVWQLYIGDTRSR [GNMT_HUMAN_34] | inactive: 2.63
77 | CLPEHNPYRPSYSYD [AKAP8_HUMAN_146] | inactive: 1.31
78 | KFSHSGRYMMTRDYL [2ABD_HUMAN_305] | active: 4.06

biological target: SHP2 C-SH2 domain E139D; assay: as above; details: peptide library: pTyr-Var

Row | Binder | enrichment score
79 | ATQDDYVLEVR [PTPRZ1_Y2179] | inactive: 0.643
80 | NWGKKYPTCNS [PTPRZ1_Y53] | inactive: 1.01
81 | PVGVLYEVKVF [PTS_Y128_K129E_YF] | inactive: 1.21
82 | ENRKYYKDLKE [PURA_Y156_M157K] | inactive: 0.717
83 | LPVHFYSHVEH [PYGM_Y204_G205S] | inactive: 1.65

biological target: SHP2 C-SH2 domain wild-type; assay: as above; details: peptide library: pTyr-Var

Row | Binder | enrichment score
84 | ATQDDYVLEVR [PTPRZ1_Y2179] | inactive: 0.624
85 | NWGKKYPTCNS [PTPRZ1_Y53] | inactive: 1.26
86 | PVGVLYEVKVF [PTS_Y128_K129E_YF] | inactive: 1.52
87 | ENRKYYKDLKE [PURA_Y156_M157K] | inactive: 0.913
88 | LPVHFYSHVEH [PYGM_Y204_G205S] | inactive: 3.1

biological target: SHP2 N-SH2 domain L43F; assay: as above; details: peptide library: pTyr-Var

Row | Binder | enrichment score
89 | ATQDDYVLEVR [PTPRZ1_Y2179] | inactive: 0.533
90 | NWGKKYPTCNS [PTPRZ1_Y53] | inactive: 1.12
91 | PVGVLYEVKVF [PTS_Y128_K129E_YF] | inactive: 1.51
92 | ENRKYYKDLKE [PURA_Y156_M157K] | inactive: 0.894
93 | LPVHFYSHVEH [PYGM_Y204_G205S] | inactive: 1.7

biological target: SHP2 N-SH2 domain T42A; assay: as above; details: peptide library: pTyr-Var

Row | Binder | enrichment score
94 | ATQDDYVLEVR [PTPRZ1_Y2179] | inactive: 0.48
95 | NWGKKYPTCNS [PTPRZ1_Y53] | inactive: 0.85
96 | PVGVLYEVKVF [PTS_Y128_K129E_YF] | inactive: 1.34
97 | ENRKYYKDLKE [PURA_Y156_M157K] | inactive: 0.944
98 | LPVHFYSHVEH [PYGM_Y204_G205S] | active: 3.52

biological target: SHP2 N-SH2 domain T52S; assay: as above; details: peptide library: pTyr-Var

Row | Binder | enrichment score
99 | ATQDDYVLEVR [PTPRZ1_Y2179] | inactive: 0.669
100 | NWGKKYPTCNS [PTPRZ1_Y53] | inactive: 0.825
101 | PVGVLYEVKVF [PTS_Y128_K129E_YF] | inactive: 1.16
102 | ENRKYYKDLKE [PURA_Y156_M157K] | inactive: 0.844
103 | LPVHFYSHVEH [PYGM_Y204_G205S] | inactive: 1.9

biological target: SHP2 N-SH2 domain wild-type; assay: as above; details: peptide library: pTyr-Var

Row | Binder | enrichment score
104 | ATQDDYVLEVR [PTPRZ1_Y2179] | inactive: 0.701
105 | NWGKKYPTCNS [PTPRZ1_Y53] | inactive: 1.13
106 | PVGVLYEVKVF [PTS_Y128_K129E_YF] | inactive: 1.55
107 | ENRKYYKDLKE [PURA_Y156_M157K] | inactive: 0.787
108 | LPVHFYSHVEH [PYGM_Y204_G205S] | inactive: 1.85
